{
  "source": "ChEMBL document CHEMBL4888484",
  "about": "“Replenishing the malaria drug discovery pipeline: Screening and hit evaluation of the MMV Hit Generation Library 1 (HGL1) against asexual blood stage Plasmodium falciparum ,using a nano luciferase reporter read-out” (2022)",
  "note": "Hit rate of the full screen: of about 150,000 compounds, about 540 (0.36%) showed an effect of 50% or more. This is one part of the list.",
  "data": [
    {"system": "Plasmodium falciparum", "assay": "Primary screen in NF54 nanoGlo assay, in single point, at 2uM, 72h; a lower Z score goes with more inhibition", "type": "functional, Erythrocyte", "details": "timepoint 72 hour", "units": {"% Inhibition": "%"}, "values": [
      {"smiles": "Cc1nc(N)sc1-c1ccn(C[C@H]2CCCCO2)n1", "% Inhibition": 11, "Z score": -1.84},
      {"smiles": "O=C([C@H]1CCCN(C2CCN(c3nccc4occc34)CC2)C1)N1CCCC1", "% Inhibition": 1, "Z score": -0.17},
      {"smiles": "COC(=O)CCc1nc(COc2cc(C)c(C#N)c(C)n2)no1", "% Inhibition": 0, "Z score": 0.01},
      {"smiles": "O=C(COc1ccccc1)NCC(=O)Nc1nnc[nH]1", "% Inhibition": -10, "Z score": 1.56},
      {"smiles": "CCCNc1ncc(CN2CCCCC[C@@H]2CO)cn1", "% Inhibition": 10, "Z score": -1.54},
      {"smiles": "COc1ncccc1NC(=O)COc1c[nH]c(C)cc1=O", "% Inhibition": 4, "Z score": -0.58},
      {"smiles": "O=C(c1n[nH]c2c1CCCC2)N1CCC(n2c(=O)[nH]c3ccsc3c2=O)CC1", "% Inhibition": 1, "Z score": -0.23},
      {"smiles": "CCN(CC)c1nc(N)cc(-c2cncnc2)n1", "% Inhibition": -4, "Z score": 0.64},
      {"smiles": "Cc1ccoc1C(=O)Nc1cc(C2CC2)nn1[C@H]1CCS(=O)(=O)C1", "% Inhibition": -11, "Z score": 2.31},
      {"smiles": "CC(C)c1csc([C@@H](C#N)C(=O)c2cccn2C)n1", "% Inhibition": -10, "Z score": 1.2},
      {"smiles": "O=C(NC[C@@H]1COc2ccccc2C1)c1ccccn1", "% Inhibition": -1, "Z score": 0.09},
      {"smiles": "Cc1nn(Cc2ccc(Cl)cc2)c2nc(C3CC3)cc(C(=O)O)c12", "% Inhibition": -40, "Z score": 4.74},
      {"smiles": "COc1ccc2occ(CC(=O)Nc3ccc(S(=O)(=O)Nc4nccc(C)n4)cc3)c2c1", "% Inhibition": -6, "Z score": 0.89},
      {"smiles": "Cc1nn(C)c(S(=O)(=O)N2[C@@H]3CC[C@H]2C[C@@H](c2ccccc2)C3)c1C(F)F", "% Inhibition": -19, "Z score": 2.6},
      {"smiles": "COCCN(Cc1cnn(C)c1)C(=O)NCc1nc2c(C)cccc2o1", "% Inhibition": -8, "Z score": 1.37},
      {"smiles": "O=C(CN1CCC[C@H]1c1nc(-c2ccccc2Cl)c[nH]1)NCCc1cccs1", "% Inhibition": -2, "Z score": 0.35},
      {"smiles": "CC(C)(C)c1nc(CNc2nnco2)cs1", "% Inhibition": -4, "Z score": 0.73},
      {"smiles": "C[C@@H](C(=O)Nc1ccccc1C(F)(F)F)n1cnc2c(N(C)C)ncnc21", "% Inhibition": -5, "Z score": 0.77},
      {"smiles": "O=C(N[C@@H]1CCC[C@@H]1n1ccnc1)c1ccnc2ccnn12", "% Inhibition": 0, "Z score": 0.01},
      {"smiles": "CN(C(=O)Cc1ccc2c(c1)CCCO2)[C@H]1CCNC1=O", "% Inhibition": -7, "Z score": 0.93},
      {"smiles": "CCc1nnsc1C(=O)N1CC[C@@](O)(c2ccccc2)[C@H]2CCCC[C@@H]21", "% Inhibition": -4, "Z score": 0.37},
      {"smiles": "Cc1nnsc1C(=O)N1C[C@@H](F)C[C@H]1CNC(=O)CC(C)(C)C", "% Inhibition": 9, "Z score": -1.42},
      {"smiles": "CC(C)C1CCCCC1NCCN1CCOCC1", "note": "(stereo not drawn)", "% Inhibition": -3, "Z score": 0.57},
      {"smiles": "CC(=O)N[C@@H]1C[C@H]1c1c(F)cccc1Cl", "% Inhibition": 1, "Z score": -0.17},
      {"smiles": "CCN(Cc1noc(C)n1)C[C@H](C)c1ccccc1", "% Inhibition": -3, "Z score": 0.33},
      {"smiles": "C[C@@H](Cc1ccc2c(c1)CCO2)NS(=O)(=O)Cc1ccccc1Cl", "% Inhibition": -2, "Z score": 0.29},
      {"smiles": "C[C@H](NS(=O)(=O)C1CCOCC1)c1cccc(-n2cccn2)c1", "% Inhibition": 4, "Z score": -0.52},
      {"smiles": "CC(C)CCNC1=Nc2ccccc2NC12CCCCCC2", "% Inhibition": -11, "Z score": 1.46},
      {"smiles": "Cc1ccnc2nc(-c3nc(-c4ccc(Br)o4)no3)nn12", "% Inhibition": 1, "Z score": -0.1},
      {"smiles": "c1sc(C2CN3CCCC3CO2)nc1C1CCCC1", "note": "(stereo not drawn)", "% Inhibition": 3, "Z score": -0.34},
      {"smiles": "CC1(C)CCc2ccccc2[C@@H](NCc2nccc(N)n2)C1", "% Inhibition": -2, "Z score": 0.16},
      {"smiles": "Cn1nc2c(c1NC(=O)COc1ccc(F)c(F)c1)CCCC2", "% Inhibition": -1, "Z score": 0.26},
      {"smiles": "O=C1c2ccccc2CCN1CCNC(=O)N1CCO[C@H]2CCC[C@H]21", "% Inhibition": -15, "Z score": 1.74},
      {"smiles": "Cc1[nH]ncc1-c1cc(-c2ccccc2)c2ccccc2n1", "% Inhibition": 8, "Z score": -0.96},
      {"smiles": "Cc1nccc([C@H](C)NC(=O)C2(S(C)(=O)=O)CCC2)n1", "% Inhibition": -1, "Z score": 0.11},
      {"smiles": "Cc1nc(O)cc(CNc2nc3c(s2)c(C)nn3C)n1", "% Inhibition": -8, "Z score": 0.73},
      {"smiles": "C#CCCC1(CCC(=O)N2CCc3cccc(F)c3[C@@H]2C)N=N1", "% Inhibition": 3, "Z score": -0.43},
      {"smiles": "COCCNc1nc(CC(=O)N2Cc3ccccc3CO2)cs1", "% Inhibition": 7, "Z score": -0.73},
      {"smiles": "COC[C@H](NC(=O)Nc1cc(N2CCCC2=O)ccc1C)c1ccnn1C", "% Inhibition": -28, "Z score": 2.79},
      {"smiles": "CN(Cc1ccon1)C(=O)c1coc(CN2CCN(c3ccccc3F)CC2)n1", "% Inhibition": -2, "Z score": 0.34},
      {"smiles": "O=C(Nc1cccc(F)c1)c1nnc([C@@H]2CCCN2C(=O)Nc2ccccc2C(F)(F)F)s1", "% Inhibition": -11, "Z score": 1.27},
      {"smiles": "COc1nc(C)cc(N(C)CC2(CO)CC2)n1", "% Inhibition": -17, "Z score": 2.11},
      {"smiles": "Cc1cccc(-c2nccc(Oc3ccc(C(=O)Nc4ccccc4)cc3)n2)c1", "% Inhibition": 1, "Z score": -0.09},
      {"smiles": "O=C(CN1C(=O)c2ccccc2C1=O)OCCOC(c1ccccc1)c1ccccc1", "% Inhibition": -1, "Z score": 0.1}
    ]}
  ]
}
